Reference: PubChem BioAssay AID493208 (National Center for Advancing Translational Sciences (NCATS), 2011)
Screen size: about 44,000 compounds; about 340 (0.77%) were called active. About 5% were inconclusive and are not listed. The call rests on the fitted dose curve; in most records, active means well fitted inhibition curve with a large enough effect; inconclusive means small, poorly fitted or top-dose-only effect; inactive means flat fitted curve, though single readings scatter. Some of the results follow.

Experiment: Acumen qHTS Assay for Inhibitors of the mTORC1 Signaling Pathway in MEF (Tsc2-/-, p53-/-) Cells: Sytravon;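 further: plate controls were DMSO for no effect and rapamycin for full effect; nearly all actives have a fitted effect of over 50% in size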
Conditions: phospho-rpS6 immunofluorescence/PI, 24 h; series mostly up to 38.3 µM; activity change, negative = inhibition: at the top concentration
How it was run: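 Readout is phospho-S6 Alexa 488 signal normalized to PI per well, reported as % active cells with thresholds set from rapamycin (7.5 nM) and DMSO controls. Cells: Tsc2-/-, p53-/- MEFs, 24 hrs compound at 37 C; PI cell number serves as viability.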

Row | Structure (SMILES) | activity change, negative = inhibition
1 | COc1cc(NC(=O)CN2CCCN(S(=O)(=O)c3ccc(F)cc3)CC2)cc(OC)c1 | inactive: -0.448%
2 | C=CCc1cccc2cc(-c3nc4ccc(C(=O)O)cc4[nH]3)c(=O)oc12 | inactive: -3.81%
3 | CCOC(=O)c1cc(S(=O)(=O)Nc2c(C)cc(C)cc2C)[nH]n1 | inactive: -4.99%
4 | Cc1ccc2nc(-c3ccc(NC(=O)COc4ccccc4C(C)(C)C)cc3)sc2c1 | inactive: 2.73%
5 | CCOC(=O)N1CCN(c2ncc3c(n2)CC(c2ccc(Cl)cc2)CC3=O)CC1 (stereo unspecified) | inactive: 5.08%
6 | CC(=O)NC(C)c1nc2ccccc2n1Cc1ccccc1Cl (stereo unspecified) | inactive: -1.86%
7 | Cc1ccc(C)c(NC(=O)C2CCCN2S(=O)(=O)c2ccc3c(c2)n(C)c(=O)c(=O)n3C)c1 (stereo unspecified) | inactive: -11%
8 | COc1ccc(C2C(C(=O)Nc3cccnc3)=C(C)Nc3nc(SCc4ccccc4)nn32)cc1 (stereo unspecified) | inactive: -6.2%
9 | CCOC(=O)CCCCN(Cc1ccccc1F)S(=O)(=O)c1ccc(F)c(C(=O)Nc2cc(Cl)cc(Cl)c2)c1 | inactive: -8.85%
10 | COc1cc(-c2noc(-c3ccc(NC4CCCC4)c([N+](=O)[O-])c3)n2)cc(OC)c1OC | inactive: -0.128%
11 | COc1ccc(-c2noc(-c3cc(-c4ccc(F)cc4)n[nH]3)n2)cc1 | inactive: 1.36%
12 | O=C(NCc1ccc(F)cc1)c1nnc(Cc2cccc(F)c2)o1 | inactive: -25.3%
13 | CCOc1ccc(NC(=O)Nc2cc3c(cc2N2CCCCC2)n(C)c(=O)n3C)cc1 | inactive: -18.7%
14 | COc1ccc(C2=NC(C)(C)N(CC(=O)Nc3cc(OC)cc(OC)c3)C2=O)cc1 | inactive: -10.5%
15 | CN(c1ccc(F)cc1)S(=O)(=O)N1CCCC(C(=O)NCCc2ccccc2)C1 (stereo unspecified) | inactive: -6.9%
16 | Cc1ccc(-c2cc3nccc(-c4cc([N+](=O)[O-])ccc4O)n3n2)cc1 | inactive: -10.1%
17 | CCOc1ccc(S(=O)(=O)NCc2nc3cccnc3n2Cc2ccccc2OC)cc1 | inactive: 0.0474%
18 | CCCOc1ccc(-c2nc3ccc(Br)cc3c(=O)o2)cc1 | inactive: -15.4%
19 | CCCCNC(=O)CSc1nc2n[nH]c(C)c2c(=N)n1-c1cccc(C)c1 | inactive: 1%
20 | Cc1nc2ccc(S(=O)(=O)NC(CC(C)C)C(=O)NCc3ccc(Cl)cc3)cc2s1 (stereo unspecified) | inactive: -0.889%
21 | CC1=C(C(=O)N2CCN(c3ccc(Cl)cc3)CC2)C2(CCC(C)CC2)OC1=O (stereo unspecified) | inactive: 1.73%

Row | Structure (SMILES) | activity change, negative = inhibition
22 | O=C(Cn1c(=O)n(Cc2ccccc2)c(=O)c2sc3ccccc3c21)Nc1ccc(F)cc1 | inactive: -11.1%
23 | CCCCN(CC)CCCNC(=O)c1cc2c(=O)oc3ccc(C)cc3c2s1 | inactive: -2%
24 | COc1ccc(-c2nc3sc(CCNC(=O)C(=O)Nc4ccc(C)c(C)c4)c(C)n3n2)cc1 | inactive: 0.966%
25 | CCOC(=O)c1cc(-c2ccccc2)n(CC(=O)NCc2ccccc2)c1C | inactive: -0.79%
26 | Cc1ccc(C)c(Cn2c(=O)n(CCCC(=O)NCCc3ccc(Cl)cc3)c(=O)c3ccccc32)c1 | inactive: -18.8%
27 | O=C(COc1ccc(Cl)cc1)NCC(c1cccs1)S(=O)(=O)c1ccc(F)cc1 (stereo unspecified) | inactive: 0.0758%
28 | CC(C)c1ccc(NC(=O)c2cnc3sc(N4CCCC4)nn3c2=O)cc1 | inactive: -15%
29 | CCOC(=O)c1ccc(NC(=O)CC2C(=O)N(c3cccc(C)c3)C(=O)N2CCOC)cc1 (stereo unspecified) | inactive: -0.14%
30 | CCOc1ccc(-c2nonc2NC(=O)c2ccco2)cc1OCC | inactive: 7.57%
31 | CCOc1ccccc1CNC(=O)c1cc2c(=O)n(Cc3ccco3)ccc2nc1C | inactive: -6.2%
32 | COc1ccc(OC)c(-c2csc(-c3c(N)c(C(=O)c4ccc(Cl)cc4)n4ccccc34)n2)c1 | inactive: -2.12%
33 | CCOc1cc(CNC(=O)NC2COc3ccccc3C2)cc(OCC)c1OCC (stereo unspecified) | inactive: 0%
34 | Cc1ccc(OCC(=O)Nc2nnc(SCc3cc(=O)n4cccc(C)c4n3)s2)cc1 | inactive: 5.72%
35 | CCc1ccccc1Nc1ncnc2c1cnn2-c1ccc(C)cc1C | inactive: 0.936%
36 | COc1ccc(C(=O)Nc2nnc(S(=O)(=O)N3CCN(c4ccc(F)cc4)CC3)s2)cc1 | inactive: 7.14%
37 | COc1ccc(C(=O)Nc2nnc(S(=O)(=O)N(C)c3ccc(C)cc3)s2)cc1 | inactive: 11.9%
38 | Cc1ccc(NC(=O)CSc2nc3c(sc4ccccc43)c(=O)n2CCCC(=O)NC2CCCC2)cc1C | inactive: -0.43%
39 | CC(C)COc1ccc(C(=O)Nc2nnc(S(=O)(=O)N(C)Cc3ccco3)s2)cc1 | inactive: 2.07%
40 | COc1cccc(CNC(=O)c2cc3c(=O)n(Cc4cccnc4)ccc3nc2C)c1 | inactive: -1.19%
41 | CCc1cccc(NC(c2ccccc2)c2nnc(-c3ccccc3F)o2)c1 (stereo unspecified) | inactive: -3.42%
42 | CCOC(=O)c1c(C)[nH]c(C)c1S(=O)(=O)N1CCCC(C(=O)NCc2ccccc2Cl)C1 (stereo unspecified) | inactive: 3.18%

Row | Structure (SMILES) | activity change, negative = inhibition
43 | COc1ccccc1CNC(=O)CN(c1ccccc1OC)S(C)(=O)=O | inactive: 1.33%
44 | CCC(C)NC(=O)Cn1c(=O)n(-c2ccc(OC)c(OC)c2)c(=O)c2ccccc21 (stereo unspecified) | inactive: -3.43%
45 | Cc1ccc2oc(-c3cc(NC(=O)CC(C)C)ccc3Cl)nc2c1 | inactive: -4.54%
46 | CCCc1cc(=O)oc2c(C)c3c(cc12)CN(CCc1ccc(Cl)cc1)CO3 | inactive: 2.19%
47 | Cc1ccc2c(c1)Cc1c(nc(-c3ccc(F)cc3)nc1SCC(=O)N1CCCCC1)O2 | inactive: 2.62%
48 | Cc1ccc(Nc2c(-c3cccnc3)nc3ccc(Cl)cn23)cc1 | inactive: -4.42%
49 | CCOC(=O)C1CCN(C(=O)c2c(C)nn(-c3ccc(F)cc3)c2-n2cccc2)CC1 | inactive: -0.619%
50 | COc1ccc2cc(CCNS(=O)(=O)c3ccc(C)cc3)c(=O)[nH]c2c1 | inactive: -2.08%
51 | Cc1cccc(OCC(=O)Nc2ccc3c(c2)nc(CN2CCCCC2)n3C)c1 | inactive: -12.4%
52 | CCCc1nnc(NC(=O)Cc2coc3c(C)c(C)ccc23)s1 | inactive: -6.84%
53 | Cc1ccc(Cl)cc1N1CCN(S(=O)(=O)c2ccc3c(c2)C(C(C)C)C(=O)N3)CC1 (stereo unspecified) | inactive: -6.31%
54 | Cc1ccc(-n2ncc3c(N4CCN(Cc5ccccc5)CC4)ncnc32)cc1Cl | inactive: 8.93%
55 | CCc1cc(=O)[nH]c(SCc2nc(-c3cccc(Cl)c3)no2)n1 | inactive: -1.95%
56 | CC(C)c1ccc(NC(=O)C2CCCN2S(=O)(=O)c2ccc3nc(-c4ccccc4)[nH]c3c2)cc1 (stereo unspecified) | inactive: 0%
57 | O=C(COCc1cc(-c2cccs2)on1)NCc1ccc(F)cc1 | inactive: 4.87%
58 | O=C(Nc1ccc(Cl)cc1)c1ccc(-n2cnnc2)cc1 | inactive: -0.517%
59 | CCOCCCn1c(SCC(=O)Nc2ccc(CC)cc2)nc2ccccc2c1=O | inactive: -1.61%
60 | COc1ccc(C(=O)N(Cc2sccc2C)C2CCS(=O)(=O)C2)cc1 (stereo unspecified) | inactive: 5.36%
61 | CCc1ccc(C2C(C(=O)Nc3ccccc3OC)=C(C)Nc3nc(SCc4ccccc4)nn32)cc1 (stereo unspecified) | inactive: 5%
